From PubChem BioAssay AID1645887 (National Center for Advancing Translational Sciences (NCATS), 2021) come the findings set out here.

Where “and” joins values, the source holds several entries; their conditions need not be identical. Identical values can stand only once. Among all 16,000 compounds or so, about 40 (0.2%) were called active. Inconclusive results (about 1%) are left out. Calls follow the shape of the dose curve; as a rule, active = well fitted activation curve with a large enough effect; inconclusive = small, poorly fitted or top-dose-only effect, or another doubt; inactive = no such curve, though single readings can be large or run the other way. The list shows a part of the results.
% is scaled to controls: 0 for no effect and ±100 for the full control effect.

This assay deals with Rap guanine nucleotide exchange factor 4 (Homo sapiens) (UniProt Q8WZA2). Description: Validation qHTS for agonist of cAMP-regulated guanine nucleotide exchange factor 4 (EPAC2).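 Also: exchange makes BODIPY-GDP fluorescence drop when released from Rap1B; series mostly up to about 150 µM.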 The settings on record: EPAC2 Rap1B BODIPY-GDP exchange, fluorescence; activation: stronger effect = higher value. A digest of the protocol: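 Fluorescent exchange assay: 100 nM EPAC2 with 250 nM RAP1B-BODIPY-GDP and 50 uM GDP; compound added, 5 min at room temperature, then read (ex 480/em 540 nm) every 5 min for 30 min. Normalized to 6.5 mM cAMP agonist control.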
UniProt Q8WZA2, sequence (Q8WZA2 whole entry, looked up): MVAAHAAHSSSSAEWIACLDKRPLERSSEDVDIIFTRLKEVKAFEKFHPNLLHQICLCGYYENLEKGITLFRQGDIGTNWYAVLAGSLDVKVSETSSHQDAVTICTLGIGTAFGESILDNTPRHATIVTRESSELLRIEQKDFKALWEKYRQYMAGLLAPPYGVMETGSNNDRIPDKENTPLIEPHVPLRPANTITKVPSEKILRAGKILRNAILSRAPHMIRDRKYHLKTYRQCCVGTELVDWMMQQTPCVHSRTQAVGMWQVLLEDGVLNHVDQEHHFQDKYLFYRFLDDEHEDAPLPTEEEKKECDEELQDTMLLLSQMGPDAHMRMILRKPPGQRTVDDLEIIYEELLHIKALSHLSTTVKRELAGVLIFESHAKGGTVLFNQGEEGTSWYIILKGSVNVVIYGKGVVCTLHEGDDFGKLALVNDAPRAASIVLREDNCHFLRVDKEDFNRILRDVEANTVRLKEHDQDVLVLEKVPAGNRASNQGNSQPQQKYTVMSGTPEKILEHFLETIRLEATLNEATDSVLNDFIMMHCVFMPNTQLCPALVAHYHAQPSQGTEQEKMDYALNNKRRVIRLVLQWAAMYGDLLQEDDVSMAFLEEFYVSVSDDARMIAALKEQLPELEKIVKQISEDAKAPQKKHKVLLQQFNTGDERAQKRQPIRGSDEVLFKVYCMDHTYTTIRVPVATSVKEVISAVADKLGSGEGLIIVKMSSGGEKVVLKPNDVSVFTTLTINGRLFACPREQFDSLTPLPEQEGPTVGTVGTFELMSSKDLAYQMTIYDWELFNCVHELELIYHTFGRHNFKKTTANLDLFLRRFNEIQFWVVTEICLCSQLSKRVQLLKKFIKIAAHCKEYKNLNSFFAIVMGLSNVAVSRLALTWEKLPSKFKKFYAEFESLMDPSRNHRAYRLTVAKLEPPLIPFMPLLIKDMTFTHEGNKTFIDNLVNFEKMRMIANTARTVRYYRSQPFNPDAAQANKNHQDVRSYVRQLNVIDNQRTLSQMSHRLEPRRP
On the technique in general: Quantitative high-throughput screening tests each substance at several concentrations.
For `COc1ccc2c(c1)/C(=C/c1cnc[nH]1)C(=O)N2`, the activation was inactive: -32.4%. With `C[C@@]12C=CC(=O)C=C1CCC1C2CC[C@]2(C)C(=O)CCC12` (stereo not given in full) the figure was inactive: -7.37%.

With `CCCCCc1cc(O)c2c(c1)OC(C)(C)c1ccc(C)cc1-2`, the activation was inactive: 14%. With `COc1ccc2c(c1)[nH]c1c(C)nccc12` the figure was inactive: 0.0563% [middle of 4 runs]; with `CCc1cccc(C)c1N(C(=O)CCl)C(C)COC` (stereo not given), inactive: -6.76%; with `Ic1ccccc1CNC1C2CCN(CC2)C1C(c1ccccc1)c1ccccc1` (stereo not given), inactive: -11.7%. Turning to `Oc1c(Cl)c(Cl)c(Cl)c(Cl)c1Cl`, the activation was inactive: -14.2%.

As to `O=C1c2ccccc2C(=O)c2ccccc21`, the activation was inactive: -29.9% and inactive: 4.19%. With `CCN(C(C)=O)c1cccc(-c2ccnc3c(C#N)cnn23)c1` the figure was inactive: 2.36%; with `CNC(C)[C@H](O)c1ccccc1` (stereo not given in full), inactive: -15.3%. In the case of `CC(=O)OC[C@]12C[C@H](OC(=O)CC(C)C)C(C)=C[C@H]1O[C@H]1[C@H](O)[C@@H](OC(C)=O)[C@@]2(C)[C@]12CO2`, the activation is inactive: 6.55%.

For `O=[N+]([O-])c1ccc([As](=O)(O)O)cc1`, the activation is inactive: 3.57%. With `C1CC[C@H]([C@@]23C[C@H](C[C@H]4CCCN[C@H]42)[C@@H]2CCCCN2C3)NC1` the figure was inactive: -11.4%; with `CCOCCOC(C)=O`, inactive: 9.82%; with `CC[N+](CC)(CC)CC`, inactive: -14.7% and inactive: -33.8%. With `CCC(COC(=O)c1cc(OC)c(OC)c(OC)c1)(c1ccccc1)N(C)C` (stereo not given) the figure was inactive: -3.04%. With `C[C@@H](CO)NC(=O)[C@@H]1C=C2c3cccc4[nH]cc(c34)C[C@H]2N(C)C1` the figure was inactive: 12.8%; with `Clc1ccc(C(OCCN2CCCCC2)c2ccccc2)cc1` (stereo not given), inactive: -20.8% and inactive: -5.53%; with `COC(=O)N1CCN(C(=O)Cc2ccc(Cl)c(Cl)c2)[C@H](CN2CCCC2)C1`, inactive: 7.41%. As to `CCCSP(=O)(OCC)SCCC`, the activation was inactive: 7.21%. Take `CN1CCN(C(=O)OC2c3nccnc3C(=O)N2c2ccc(Cl)cn2)CC1` (stereo not given): the activation was inactive: -16.6% and inactive: 14.3%. In the case of `NCCc1c[nH]c2ccccc12`, the activation was inactive: -13.5% and inactive: -7.12% and inactive: -9.68%. With `COc1ccc2c(CCN)c[nH]c2c1` the figure was inactive: -0.0623%; with `CN1C2CCC1CC(OC(c1ccccc1)c1ccccc1N)C2` (stereo not given), inactive: -9.4% and inactive: -12% and inactive: -21.8%; with `CCC[C@@H]1CC2=CC(=O)CC[C@]2(C)[C@@H]2CC[C@@]3(C)[C@H](CC[C@]3(O)CCC(=O)O)[C@H]12`, inactive: -9.02%.
